Results: the supplement of paper PMC10126150
Values marked as one replicate rest on one cluster of the flow cell; about a third of the high ones do not repeat.

Tested on: ATP
Assay: switch fluorescence ratio, 500 uM ATP over buffer (Cy3 cluster intensity, sum of 5 cycles each) (fold (ratio)); higher = stronger signal-on switching upon ATP binding; sequences stand for … in TCGTCGGCAGCGTCAGATGTGTATAAGAGACAGTTTTTTTTTTTTTTTTTTTTTTTTT…TC
Settings: aptamer strand: ATP DNA aptamer (quencher-CACCTGGGGGAGTATTGCGGAGGAAGG + anchor), 100 nM annealed; ATP concentration: 500 uM; one replicate
Outline: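 Imaging in selection buffer was followed by imaging after 15 min with 500 uM ATP at 22 °C, for Cy3-labelled switching-strand clusters annealed to 100 nM quencher-labelled ATP aptamer on a modified Illumina MiSeq flow-cell. Five of these buffer/ATP cycles ran, separated by NaOH stripping and re-annealing. The fluorescence ratio per cluster is summed target-cycle over summed buffer-cycle Cy3 intensity, averaged per switch-domain sequence; clusters outside 100-1000 RFU were removed.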
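Note: ATP exposure 15 min at 22 °C before imaging.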

Sequence	switch fluorescence ratio
CGACTATTGC	1.19
TCCAGACGCT	1.28
GATATGTG	0.994
TACATGTTTT	0.984
ACTCTCTTCA	1.02
TTGCGTATTA	1.01
CATATAGGCC	0.946
ATTTTTCAGG	0.988
GCATTTGACC	1.06
TCCCATTTT	1.02
AGGGAAGTAA	1.03
CGGAAGAGAA	1
GCCACCTCAA	1.46
TTACCAAATG	1.03
GGTTATATAA	1.11
CGGTAGAGTG	0.978
ACGGCGCTTT	1.48
AACTTACCAT	1.06
AGCTGAGGTG	1.05
TACCTTA	1.1
GATGGCAGCC	0.894
GGTAAAGAG	1.54
CAAGGCAACG	0.966

Sequence	switch fluorescence ratio
TTAATTCC	1.03
CCGTCGAGTG	1.05
CCCAGAGGTA	1.03
TCAGATGTTT	0.973
AGATGACTA	1.02
CATCCCCCTT	1.05
GAAGTTTCCA	0.992
TTACTTGGAC	1.02
GGATTCGGGT	0.954
TCTAGTCACA	1.03
CTAAGAATTC	0.957
GTCCAACGAT	0.997
CAGCACAGAG	1.05
GTGATGAGCC	0.929
TATCATAACA	1.02
AGGATTCGAG	0.984
GTGAGCGCG	0.942
GTTCCGGCAA	3.24
ACCCGACGAT	1.48
CCGATTTTGG	1
TTAGGCATGG	1.01
CGGTGGAAGC	1.12
CTGCATGTCC	1.49

Sequence	switch fluorescence ratio
TTGACAATTT	1.03
CTACAAGCGG	0.992
GTGATGGAAG	0.989
CTCTAGAACT	1.01
CTCGACGGAG	1.01
GAACCTTTGT	1.1
GTTTTAGCCC	0.991
CGCTTTCCTC	1.66
CAAGGAACAT	0.988
CCATCCGATC	2.24
GGGATTCCGG	0.985
TGTTGAGGGA	0.926
CTGACTAAAG	0.992
TGAAGATCTA	1.02
CAGCTCATTT	0.982
CGTTCTTTGT	0.995
GTGAGTCGAG	0.978
GGATCCATAT	1
ACGCTCACTA	1.34
CTGTGGGTGA	0.977
CTTCTCTCTC	1.07
ATAACGTGCT	0.997
CGTTTCCCGT	0.977

Sequence	switch fluorescence ratio
TCTTGGTGTT	0.967
ATTTGACGTC	1
CTAATTAACG	0.975
AATTGCTCAC	1.05
CGAGATGATG	0.952
AAAGTCGAGG	0.988
GCCTTATACG	1.09
GAAGAGTCGG	0.972
GAGCTACCAG	1.05
CAATAAAAGG	1
TTGCAGGTAT	1.06
CCGGCAGCCT	1.54
ATATGTAGCG	1.02
AATTTAGATA	1.01
GTTCATCCTT	1.04
GCAGTCCGTT	1.02
GGCTGACAGC	0.978
CCGGTTAGGT	1.05
TAATGGAAAG	1.07
GGGTGCCCCG	1.13
TACGGAAG	1.03
AGTAATATT	0.996
ACTGGCATTC	1.31

Sequence	switch fluorescence ratio
GGTAATACTG	1.14
ATATGGGCAG	0.969
TTTTGGCCTC	0.993
CATGTGTTCC	1.05
GAATGGGTGG	0.965
TTACGGAGTA	1.01
TTGAGTACAG	1.06
CTGGAAAAAT	0.986
AGAGGTGTGT	0.984
TGGTATCGCG	1
CTGGGGTACC	1.01
CAATAGGGGT	1.01
GAGTTGTTGC	0.977
TAGAATTCG	0.967
GGAACCGTGC	1.32
ATACTTGCAC	1.25
ACGCAGTTAG	1.09
GCACTTTTGG	1.01
ACACAATTTG	0.995
ATCTCAGCCT	1.14
AGCATTAGAA	0.991
TCGTGCATAC	3.26
CGACAATGGG	0.97

Sequence	switch fluorescence ratio
AGATGCCGCA	0.987
CCAGATCAGC	0.994
CTTAACTGTG	0.913
ATTGTACAGA	1
GAAATCGCAT	1.15
ATGATCTGGG	0.947
TTTACCTCAG	1.03
CTGGCTGAAG	1.02
GATGGGGGCT	0.964
TGTATGTTTG	0.974
ATATGAGATA	0.974
ATTATTCCCC	1.02
GACATGCTTA	1.02
AGGCGATCTC	1.11
GTTTTATTTA	1.02
GATACTAGGT	1.03
CAGGAACGAA	1.01
ACGCTAACGG	1.17
ACCTCCCCCC	1.26
ATCCTGGTAG	0.984
AAATGAGGAT	1.01
GGTCTAAACT	1.04
CAAGGCACAT	1.02

Sequence	switch fluorescence ratio
CGCGGATGGC	1.07
GTTCGCTTGG	1.03
ACTATTACTG	1.28
TTGTCATAGT	0.957
GCCGTAGAGC	0.985
TTGGTGAGAA	0.983
TAGGACGCCT	1
AATTTAATCC	1.05
AGTCTGTTAG	1.01
GCGAGCACGG	1.08
GATGCAACGT	1.04
GTAAACATCT	1.03
CAATCGCTTA	1.24
CCGTCAGGCA	1.03
GGTGTACTAA	0.994
AAGGCACTAC	2.13
CTTTATAATA	1.09
AAAAGTCTCT	1
GGAGACCCGA	1.03
